Data: US20250108038A1 (priority 2023, published 2025)

Tests used:
OATP1B1 = target: T1, OATP1B1 (Homo sapiens, UniProt Q9Y6L6); test: Uptake transporter inhibition assay, OATP1B1 (estradiol-17-β-glucuronide)
T1 sequence (Q9Y6L6 1-691): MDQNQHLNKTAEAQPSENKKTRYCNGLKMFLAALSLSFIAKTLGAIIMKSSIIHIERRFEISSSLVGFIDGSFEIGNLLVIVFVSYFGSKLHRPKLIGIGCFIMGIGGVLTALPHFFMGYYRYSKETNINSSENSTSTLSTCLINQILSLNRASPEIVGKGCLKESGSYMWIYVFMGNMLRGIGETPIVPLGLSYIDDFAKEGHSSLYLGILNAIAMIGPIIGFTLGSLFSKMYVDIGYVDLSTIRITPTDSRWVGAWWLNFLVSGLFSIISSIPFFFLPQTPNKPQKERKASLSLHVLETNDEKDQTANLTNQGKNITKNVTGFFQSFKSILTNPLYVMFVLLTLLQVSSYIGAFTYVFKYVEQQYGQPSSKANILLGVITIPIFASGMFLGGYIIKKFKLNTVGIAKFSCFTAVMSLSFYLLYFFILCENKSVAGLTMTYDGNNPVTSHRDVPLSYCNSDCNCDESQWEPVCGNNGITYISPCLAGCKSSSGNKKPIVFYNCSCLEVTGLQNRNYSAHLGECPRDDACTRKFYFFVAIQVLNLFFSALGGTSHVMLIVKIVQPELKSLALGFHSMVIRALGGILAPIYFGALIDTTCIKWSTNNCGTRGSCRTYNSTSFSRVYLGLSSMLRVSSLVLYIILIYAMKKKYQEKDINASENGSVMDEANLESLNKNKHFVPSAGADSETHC
Description: (§1) Uptake experiments were performed using HEK293 cells stably expressing the respective uptake transporters. The assays were conducted according to the actual SOLVO uptake transporter assay protocols (PR-ASY-UPT-General Protocol for Uptake Transporter Inhibition Assays).
(§2) Cells were cultured at 37° C. in a humidified atmosphere containing 5% CO2 and were plated onto standard 96-well tissue culture plates.
(§3) Before the experiment, the medium was removed, and the cells were washed twice with 100 μL of pre-warmed (37° C.) assay buffer listed in Table 15. The cells were pre-incubated at 37° C. for 30 minutes in assay buffer containing the test article at appropriate concentrations (Table 16), appropriate solvents for solvent controls and the reference inhibitor for reference inhibitor wells. After the pre-incubation step solutions were removed. Uptake experiments were performed at 37° C. in 50 μL of assay buffer containing the probe substrate and the test article or solvent and controls.
(§4) After the experiment, cells were washed twice with 100 μL of appropriate cold buffer and lysed with 150 μL scintillation cocktail. Radiolabeled probe substrate transport was determined by liquid scintillation counting.
(§5) Uptake of the probe substrate in control cells provided background activity values for all data points.

OATP1B3 = target: T2, OATP1B3 (Homo sapiens, UniProt Q9NPD5); test: Uptake transporter inhibition assay, OATP1B3 (CCK-8)
T2 sequence (Q9NPD5 1-702): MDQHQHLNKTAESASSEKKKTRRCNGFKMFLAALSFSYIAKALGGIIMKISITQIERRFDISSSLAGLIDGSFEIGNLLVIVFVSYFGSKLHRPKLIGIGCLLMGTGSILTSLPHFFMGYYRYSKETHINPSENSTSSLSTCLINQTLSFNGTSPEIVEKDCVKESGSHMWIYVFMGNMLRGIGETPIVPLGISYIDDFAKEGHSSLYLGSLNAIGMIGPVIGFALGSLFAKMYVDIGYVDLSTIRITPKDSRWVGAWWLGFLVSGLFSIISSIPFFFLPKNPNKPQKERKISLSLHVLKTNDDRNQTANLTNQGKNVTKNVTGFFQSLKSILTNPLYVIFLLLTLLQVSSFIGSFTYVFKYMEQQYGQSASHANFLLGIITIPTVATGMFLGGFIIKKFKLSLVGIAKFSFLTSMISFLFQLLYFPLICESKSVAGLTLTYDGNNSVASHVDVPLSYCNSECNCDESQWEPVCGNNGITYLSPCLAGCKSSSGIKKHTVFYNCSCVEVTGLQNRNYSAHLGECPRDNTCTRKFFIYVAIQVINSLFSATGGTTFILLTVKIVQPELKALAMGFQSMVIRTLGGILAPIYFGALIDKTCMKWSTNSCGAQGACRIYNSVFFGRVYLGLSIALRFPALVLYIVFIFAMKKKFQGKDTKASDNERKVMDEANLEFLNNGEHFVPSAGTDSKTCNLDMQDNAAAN
Description: as §1, §2, §3, §4, §5

[1] = Metabolic stability in human intestinal homogenate; type: in vitro ADME; conditions: 0.5 mg/mL homogenate, 1 mM NADPH
Description: The intestinal homogenate mixture solution was added to 96-well plates ([…]) in duplicate. […] Reaction was initiated by adding cofactor solution at 10 μL/well.
The intrinsic clearances were calculated using the following equations: […]

MDR1 = MDR1 (Homo sapiens, UniProt P08183); test: Vesicular transport inhibition assay, MDR1 (N-methyl quinidine); set-up: dose or concentration left out as unconfirmed; conditions: […] μM nominal, reference inhibitor
Description: Vesicular transport assays were performed with inside-out membrane vesicles prepared from cells overexpressing human ABC (efflux) transporters. The transporters were expressed by SOLVO Biotechnology in mammalian (HEK293) cells. The mammalian cells were stably transfected with the ABC transporter of interest. The assays were conducted according to the actual SOLVO VT assay protocols (PR-ASY-VT-General Protocol for Vesicular Transport Inhibition Assays).
The membrane vesicle suspension was mixed with the ice-cold transport buffer, then the probe substrate solution was added. […] (for BCRP and MDR1). […] Reactions were quenched by the addition of 200 μL of ice-cold washing buffer and immediate filtration via glass fiber filters mounted to a 96-well plate (filter plate). The filters were washed (5×200 μL of ice-cold washing buffer), dried and the amount of substrate inside the filtered vesicles was determined by liquid scintillation counting.
Incubation with AMP provided background activity values for all data points.

[2] = 50.00 μM nominal, E217βG, Table 131
[3] = 50.00 μM, reference inhibitor, follow-up assay

Chain of UniProt P08183 (P08183 whole entry): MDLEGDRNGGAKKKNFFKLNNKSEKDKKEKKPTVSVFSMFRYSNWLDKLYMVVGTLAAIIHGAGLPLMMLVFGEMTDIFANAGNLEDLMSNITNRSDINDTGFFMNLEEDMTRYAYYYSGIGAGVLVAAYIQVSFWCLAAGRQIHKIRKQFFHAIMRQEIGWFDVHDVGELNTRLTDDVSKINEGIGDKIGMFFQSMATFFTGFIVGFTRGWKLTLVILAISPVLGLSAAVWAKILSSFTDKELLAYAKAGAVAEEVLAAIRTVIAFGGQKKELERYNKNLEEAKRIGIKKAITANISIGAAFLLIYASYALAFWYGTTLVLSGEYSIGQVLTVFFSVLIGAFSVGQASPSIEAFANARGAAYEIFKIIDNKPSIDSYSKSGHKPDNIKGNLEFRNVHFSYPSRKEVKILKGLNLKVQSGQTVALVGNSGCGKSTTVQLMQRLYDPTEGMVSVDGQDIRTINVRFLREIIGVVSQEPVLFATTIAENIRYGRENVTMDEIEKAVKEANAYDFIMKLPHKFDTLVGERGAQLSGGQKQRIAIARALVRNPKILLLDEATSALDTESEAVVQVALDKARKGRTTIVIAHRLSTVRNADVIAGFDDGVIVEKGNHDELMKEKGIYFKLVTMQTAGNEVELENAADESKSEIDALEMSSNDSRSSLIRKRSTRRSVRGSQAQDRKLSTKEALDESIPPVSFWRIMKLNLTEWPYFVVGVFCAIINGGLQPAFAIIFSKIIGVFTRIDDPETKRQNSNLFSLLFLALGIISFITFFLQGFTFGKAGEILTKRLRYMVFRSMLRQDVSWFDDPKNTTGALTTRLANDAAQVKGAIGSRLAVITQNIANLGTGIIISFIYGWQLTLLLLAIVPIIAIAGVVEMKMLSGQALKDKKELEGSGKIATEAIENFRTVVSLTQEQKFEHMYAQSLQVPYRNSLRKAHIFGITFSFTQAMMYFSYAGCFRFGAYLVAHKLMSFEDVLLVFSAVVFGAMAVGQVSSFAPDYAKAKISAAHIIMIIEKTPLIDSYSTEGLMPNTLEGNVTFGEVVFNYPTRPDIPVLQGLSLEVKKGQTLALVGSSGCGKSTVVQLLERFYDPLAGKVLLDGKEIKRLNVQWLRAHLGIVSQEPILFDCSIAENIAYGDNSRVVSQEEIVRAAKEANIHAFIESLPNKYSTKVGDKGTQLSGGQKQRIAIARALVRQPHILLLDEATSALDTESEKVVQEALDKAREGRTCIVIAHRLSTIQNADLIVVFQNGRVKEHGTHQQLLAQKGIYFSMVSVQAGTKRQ

CO[C@H]1/C=C/O[C@@]2(C)Oc3c(C)c(O)c4c(O)c(c(/C=N/N5CCN(C)CC5)c(O)c4c3C2=O)NC(=O)/C(C)=C\C=C\[C@H](C)[C@H](O)[C@@H](C)[C@@H](O)[C@@H](C)[C@H](OC(C)=O)[C@@H]1C [Rifampicin]
Relative transporter specific accumulation (OATP1B1; 50.00 μM nominal, E217βG, Table 119): 0.84 ± 0.23 % of control | Relative inhibition (OATP1B1; [2]): 99% | Relative transporter specific accumulation (OATP1B1; [2]): 1.12 ± 0.11 % of control | Relative transporter specific accumulation (OATP1B1; 50.00 μM, reference inhibitor): 0.51 ± 0.31 % of control | Relative transporter specific accumulation (OATP1B1; [3]): 0.86 ± 0.39 % of control | inhibition at 50 µM (OATP1B1; human): 99% | Relative transporter specific accumulation (OATP1B3; 50.00 μM nominal, CCK-8, Table 120): 0.71 ± 0.29 % of control | Relative transporter specific accumulation (OATP1B3; 50.00 μM nominal, CCK-8, Table 132): 1.50 ± 0.24 % of control | Relative transporter specific accumulation (OATP1B3; 50.00 μM, reference inhibitor): 1.41 ± 0.25 % of control | Relative transporter specific accumulation (OATP1B3; [3]): 0.54 ± 0.31 % of control | inhibition at 50 µM (OATP1B3; human): 99% | inhibition at 50 μM (OATP1B3; human): 99%

C[C@]12CC[C@H]3[C@@H](CCC4=CC(=O)CC[C@@]43C)[C@@H]1CC[C@@H]2O [Testosterone, reference compound]
CLint(HIH) ([1]; 1 μM): 41.8 µL/min/mg | half-life at 1 μM ([1]; human, human intestinal homogenate): 33.2 min

C/C=C/C[C@@H](C)C(=O)[C@H]1C(=O)N[C@@H](C(C)C)C(=O)N(C)CC(=O)N(C)[C@@H](CC(C)C)C(=O)N[C@@H](C(C)C)C(=O)N(C)[C@@H](CC(C)C)C(=O)N[C@@H](C)C(=O)N[C@H](C)C(=O)N(C)[C@@H](CC(C)C)C(=O)N(C)[C@@H](CC(C)C)C(=O)N(C)[C@@H](C(C)C)C(=O)N1C [Valspodar]
Relative inhibition (MDR1): 99% | Relative inhibition (MDR1; follow-up assay): 96%

C/C=C/C[C@@H](C)C(=O)[C@H]1C(=O)N[C@@H](C(C)C)C(=O)N(C)CC(=O)N(C)[C@@H](CC(C)C)C(=O)N[C@@H](C(C)C)C(=O)N(C)[C@@H](CC(C)C)C(=O)N[C@@H](C)C(=O)N[C@H](C)C(=O)N(C)[C@@H](CC(C)C)C(=O)N(C)[C@@H](CC(C)C)C(=O)N(C)[C@@H](C(C)C)C(=O)N1C [valspodar]
Relative ATP-dependent transport (MDR1): 0.18 ± 0.68 % of control
